According to PubChem BioAssay AID463173 (ICCB-Longwood Screening Facility, Harvard Medical School, 2010):
About 1,700 (3.3%) of roughly 52,000 compounds were called active. Cut-off read from the data, not from the text of the source: active = survival mostly below about 52% (no sharp cut-off); inactive = mostly above about 56%. The list shows a part of the results.

These molecules were tested on Wild type (assay: S. aureus survival, RN4220 and DeltatarO strains – OD600, teichoic acid synthesis inhibitors, primary screen (AID 463173)). Conditions: S. aureus RN4220 wild type/DeltatarO growth, OD600, 18 h, stronger effect = lower value, screened at 18.75 µg/mL (by protocol).

Row | Compound | survival
1 | CC1=Nc2cc(C(=O)NC3CCCC3)ccc2Sc2ccc(Br)cc21 | inactive: 71%
2 | Nc1sccc1C(=O)c1ccccc1 | inactive: 114%
3 | CN(C)CCCNc1nc(-c2ccc(Cl)cc2)cs1 | inactive: 107%
4 | COc1ccccc1CNC(=O)c1ccc(CN2CC(=O)N3CCCCC3C2=O)cc1 (centres undefined) | inactive: 72%
5 | CCN(CC)c1ccc(NC(=O)CN2CCN(CC(=O)Nc3ccccc3OC)CC2)cc1 | inactive: 136%
6 | COc1ccccc1C(=O)NCC1(N2CCN(C)CC2)CCCCC1 | inactive: 86%
7 | Cc1ccc(C)c(NC(=O)N2CCC(N3CCN(Cc4ccc(F)cc4)C(=O)C3=O)CC2)c1 | inactive: 125%
8 | Cc1ccccc1Nc1cc(C(=O)NC2CCCCC2)c2ccccc2n1 | inactive: 133%
9 | CCOCCCn1c(SCC(=O)NCCCOC)nc2c(sc3ccccc32)c1=O | inactive: 134%
10 | Fc1ccc(Nc2ncnc3c2nc2n3CCCC2)cc1 | inactive: 76%
11 | CCOC(=O)N1CCc2c(sc3c2c(=O)n(-c2ccc(Cl)cc2)c(=O)n3Cc2cccc(C)c2)C1 | inactive: 94%
12 | Cn1c(=O)oc2cc(S(=O)(=O)N3CCCC(C(=O)N4CCN(c5ccccc5F)CC4)C3)ccc21 (centres undefined) | inactive: 88%
13 | CCOCCCNC(=O)c1c[nH]c2ccc(S(=O)(=O)Nc3cccc(Cl)c3C)cc2c1=O | inactive: 76%
14 | Cc1ccc(CCNc2ncnc3onc(C)c23)cc1 | inactive: 119%
15 | Cc1ccc(C)c(NC(=O)C(Cc2ccccc2)N2Cc3ccccc3C2=O)c1 (centres undefined) | inactive: 133%
16 | O=C(NCCS(=O)(=O)N1CCN(c2ccc(F)cc2)CC1)c1cc(=O)c2ccccc2o1 | inactive: 74%
17 | CSc1cccc(Nc2cc(C(=O)NCCCN(Cc3ccccc3)C(C)C)c3ccccc3n2)c1 | inactive: 75%
18 | COc1ccccc1N1CCN(S(=O)(=O)c2cc3[nH]c(=O)c(=O)[nH]c3cc2C)CC1 | inactive: 71%
19 | O=C(c1ccccc1)N1CCN(c2ccc(F)cc2)CC1 | inactive: 108%
20 | CCOc1ccc(CNC(=O)CCC(=O)N2CCSc3ccccc32)cc1 | inactive: 80%

Row | Compound | survival
21 | CN(c1ccccc1)C(c1ccc(F)cc1)c1nnnn1CC1CCCO1 (centres undefined) | inactive: 101%
22 | Cc1ccc2occ(CC(=O)N(Cc3ccc(N(C)C)cc3)C3CCS(=O)(=O)C3)c2c1 (centres undefined) | inactive: 83%
23 | CN1CCC(OC(=O)c2ccc(Cl)cc2Cl)CC1 | inactive: 104%
24 | CCc1cccc(NC(=O)CN2CCCN(Cc3cccc(C)c3)S2(=O)=O)c1 | inactive: 70%
25 | COc1ccc2nc(N3CCN(C(=O)C4CC4)CC3)sc2c1 | inactive: 99%
26 | COc1ccc(NC(=O)N2CCc3c([nH]c4ccc(OC)cc34)C2c2ccc(OC)cc2)cc1 (centres undefined) | inactive: 93%
27 | O=C(NCc1ccccc1)N(Cc1nc2ccccc2c(=O)[nH]1)C1CCCC1 | inactive: 107%
28 | COC(=O)c1cc2oc3ccccc3c2n1Cc1c(F)cccc1Cl | inactive: 112%
29 | COc1cc(OC)c2c(C)cc(=O)oc2c1 | inactive: 109%
30 | CCN(CC)C(=O)C1CCCN(c2ncnc3onc(C)c23)C1 (centres undefined) | inactive: 73%
31 | CN(N)c1cc(=O)n(C)c(=O)[nH]1 | inactive: 104%
32 | CCOc1ccc2nc(NCCNC(=O)c3cc(OC)c(OC)c(OC)c3)c(C#N)cc2c1 | inactive: 103%
33 | COc1ccc(N2CCN(C(=O)c3ccc4nc(N5CCC(C)CC5)sc4c3)CC2)cc1 | inactive: 86%
34 | Cc1ccc(Cl)cc1N(C)C(=O)c1cnc(N2CCOCC2)c2ccccc12 | inactive: 68%
35 | COc1cccc(-c2nc3c(C#N)c[nH]n3c2NC2CCCCC2)c1OC | inactive: 78%
36 | COc1ccc(Br)cc1Cc1nc(C)cc(Cl)n1 | inactive: 108%
37 | CC(NC(=O)c1sc2ncccc2c1-n1cccc1)c1ccccc1 (centres undefined) | inactive: 69%
38 | CC(C)N1CCN(S(=O)(=O)c2ccc(Cl)cc2)CC1 | inactive: 100%
39 | O=C(NCC(c1cccnc1)N1CCN(Cc2ccccc2)CC1)C(=O)Nc1cccc(F)c1 (centres undefined) | inactive: 114%
40 | Cc1ccc(Cn2c(=O)n(CC3CCC(C(=O)N4CCOCC4)CC3)c(=O)c3sccc32)cc1 (centres undefined) | inactive: 71%

Row | Compound | survival
41 | CCOc1ccccc1C(=O)NC1CC2CCCC(C1)N2C1CC1 (centres undefined) | inactive: 109%
42 | C/C(=N\NC(N)=O)C1CC(CC(C)C)C(=O)O1 (centres undefined) | inactive: 115%
43 | O=C(CC1Oc2ccc(Cl)cc2NC1=O)NCc1ccccc1 (centres undefined) | inactive: 85%
44 | CCOC(=O)CC(NC(=O)Cn1nnc(-c2ccc(C(F)(F)F)cc2)n1)c1ccc(C)cc1 (centres undefined) | inactive: 87%
45 | CCN(CC)S(=O)(=O)c1ccc2c(c1)N(CC(=O)Nc1ccc(F)cc1)C(=O)CO2 | inactive: 76%
46 | Cc1ccc(S(=O)(=O)N2CCCc3cc(NC(=O)c4ccccc4Cl)ccc32)cc1 | inactive: 128%
47 | COc1ccc(CCNC(=O)CCCCCn2c(SCC(N)=O)nc3cc4c(cc3c2=O)OCO4)cc1OC | inactive: 76%
48 | CCOC(=O)CNc1cccc(Cl)c1 | inactive: 112%
49 | CCN(CC)C(=O)/C(=C\c1ccc(OC)c(OC)c1)n1ccccc1=O | inactive: 96%
50 | Cc1ccc(C)c(N(C)C(=O)C2CCN(c3ncnc4c3nc3n4CCCCC3)CC2)c1 | inactive: 63%
51 | Cc1ccc(CNCc2c(C(=O)O)c(C)n(Cc3ccc(C)cc3)c2C)cc1 | inactive: 105%
52 | O=C(Nc1c(C(=O)c2ccc(F)cc2)oc2ccccc12)c1cc(-c2ccccc2)on1 | inactive: 92%
53 | COc1ccc(NC(=O)N(Cc2nnc3n2CCCCC3)c2ccc(OC)c(Cl)c2)cc1 | inactive: 47%
54 | Cn1cnc(S(=O)(=O)N2CCCC(C(=O)Nc3cccc(C#N)c3)C2)c1 (centres undefined) | inactive: 130%
55 | CCN(CC)S(=O)(=O)c1nnc(NC(=O)COc2cccc(C)c2)s1 | inactive: 96%
56 | COCCNC(=O)CSc1nc2ccccc2nc1Cc1ccc(C)cc1 | inactive: 70%
57 | CCn1c(=O)cc(OCC(=O)Nc2cc(OC)c(OC)c(OC)c2)c2ccccc21 | inactive: 63%
58 | O=C(CN(c1ccc2c(c1)OCCO2)S(=O)(=O)c1ccccc1)NC1CC1 | inactive: 113%
59 | CCOc1ccc(CNC(=O)c2ccc3nc(CC)c(CC)nc3c2)cc1OC | inactive: 69%
